About 540 (0.36%) of roughly 150,000 compounds showed an effect of 50% or more. Some of the results follow.
tested on: Plasmodium falciparum; assay: Primary screen in NF54 nanoGlo assay, in single point, at 2uM, 72h; a lower Z score goes with more inhibition; format: functional, Erythrocyte; settings: timepoint 72 hour

| SMILES | % Inhibition | Z score |
| --- | --- | --- |
| Cc1oc2ccccc2c1C(=O)N1CCC(F)(c2ccccn2)CC1 | -3% | 0.54 |
| CNCC1CCCN1C(=O)C1CC1c1cc(F)ccc1F (stereo not drawn) | -7% | 0.66 |
| COc1ccc(N2CCN(C(=O)c3ccc4nc(-c5ccc(OC)c(OC)c5)c(-c5ccc(OC)c(OC)c5)nc4c3)CC2)cc1 | 10% | -1.2 |
| COc1ccc(C(=O)Nc2ccc(-c3ccc(N4CCCCC4)nn3)cc2)cc1 | -11% | 1.35 |
| Cc1nc(CC(C)C)c(C(=O)N2CC[C@H](c3nncn3C)C2)s1 | 2% | -0.25 |
| CCOc1ccc2c(C)c(C(=O)NCc3cc(C)no3)oc2c1OCC | 4% | -0.69 |
| CCOC1CC(NC(=O)N(C)C2CCN(C)C2=O)C12CCOCC2 (stereo not drawn) | -2% | 0.21 |
| COc1ccc(Nc2nc(N3CCC(C(N)=O)CC3)nc3[nH]nnc23)cc1 | -12% | 1.89 |
| Clc1cc(Cn2nnnc2N2CCOCC2)cc2c1OCCO2 | -13% | 2.44 |
| CCc1nnsc1C(=O)N[C@@H](C)CCc1cccn1C | -6% | 0.85 |
| C[C@H](NC(=O)c1ccoc1)c1ncnn1C | 11% | -2.09 |
| CC(C)c1cc(C(=O)N2CCC[C@@]3(CCCO3)CC2)n(C)n1 | -15% | 1.62 |
| COc1ccccc1/C=C/c1cc(C)no1 | 0% | 0.01 |
| CC(C)C(C)(C#N)NC(=O)CN1CCCC(O)C1 (stereo not drawn) | -9% | 1.43 |
| C[C@H](Oc1ccccc1-c1ccccc1)C(=O)N1CCc2ccccc2C1 | -3% | 0.36 |
| O=C(NCc1ccc(-c2nnco2)cc1)c1ccccc1C1CCC1 | -7% | 0.81 |
| COc1cc(OC)c(CN2CCN(CC3CC3)CC2)c(C(=O)O)c1 | -2% | 0.26 |
| Cn1ncnc1CCNC(=O)N[C@H](c1ccc(Cl)cc1)C1CCC1 | -7% | 0.75 |
| COc1ccc2c(c1)CCc1c(C(=O)N3CCC(Cc4nncn4CC4CC4)CC3)n[nH]c1-2 | -14% | 1.64 |
| Cc1nn(C)c2nc(N3CCCN4CCC[C@H]4C3)sc12 | -5% | 0.79 |
| CS(=O)(=O)c1cccc(-c2nnc(NC(=O)C3=COCCO3)o2)c1 | -6% | 0.72 |

| SMILES | % Inhibition | Z score |
| --- | --- | --- |
| C[C@@H](CN1CCCC1=O)NCc1c[nH]nc1C(C)(C)C | 0% | 0.06 |
| Cc1ccc(C(=O)N2CCCN(c3nc(C4CCOCC4)nc4c3cnn4-c3ccccc3)CC2)cc1 | -2% | 0.44 |
| Cc1cc(C)cc(OCc2nc(C(=O)NCC(C)C)cs2)c1 | 5% | -0.79 |
| COc1ccc(-c2c(C(=O)N3CCN(C4CCN(C)CC4)CC3)nc3ccccn23)cc1 | -1% | 0.09 |
| COc1cc(C)cnc1C(=O)N1CCc2cc(Cl)ccc21 | -14% | 1.2 |
| Cc1noc(C)c1C(=O)Nc1sc2c(c1C(N)=O)CCC2 | 11% | -1.58 |
| O=C(C1=Cc2ccccc2OC1)N1CCCCC1 | -22% | 2.02 |
| CC(=O)N(Cc1cccnc1)[C@H]1CCCN(C(=O)Nc2ccc(C)cc2C)C1 | -1% | 0.1 |
| Cc1cc(C(=O)NCc2cccnc2N2CCC[C@H](O)C2)no1 | -12% | 1.76 |
| O=C(CCc1nc(-c2nnc[nH]2)no1)N1CCC(c2ccsc2)CC1 | -13% | 1.84 |
| COc1cccc(OC2CN(CCC(C)C)C2)c1 | 7% | -0.94 |
| CCCn1nccc1-c1ccc(CS(C)(=O)=O)cn1 | -1% | 0.1 |
| N[C@@H](Cc1ccsc1Cl)C(=O)O | -12% | 1.19 |
| CC(C)c1csc(C(=O)N(CC(F)F)C2CC2)n1 | 1% | -0.12 |
| N#Cc1ccc(N[C@H]2CCN(CC(F)(F)F)C2)nc1 | 4% | -0.82 |
| CN(C(=O)c1ccc2c(c1)OCCO2)C1(C#N)CCC1 | -13% | 2.43 |
| NC(=O)c1cccnc1N1CCC[C@](Cc2ccccc2F)(C(=O)O)C1 | 5% | -0.66 |
| Cc1cc([C@H](C)NCCc2ccnn2C)c(C)o1 | -2% | 0.35 |
| Cc1ccc(NC(=O)C[C@H]2COc3ccccc3NC2=O)cc1C | -7% | 0.84 |
| O=C(Nc1nc(Cc2ccccc2)cs1)C1CCOCC1 | 33% | -0.97 |
| CC[C@@H](c1ccncc1)N(C)C(=O)NCCOc1ccc(F)c(F)c1 | -7% | 0.66 |

| SMILES | % Inhibition | Z score |
| --- | --- | --- |
| Cc1ccc(-c2nc3n(CC(=O)Nc4ccc(F)cc4)c(C)c(Cc4ccccc4)c(=O)n3n2)cc1 | -1% | 0.18 |
| O=C(N[C@@H](CO)[C@@H](O)c1ccccc1)c1cc(-c2ccc(O)cc2)n[nH]1 | -8% | 1.51 |
| CCC1(CC)NC(=O)N(CC(=O)N(Cc2cccnc2)C(C)C)C1=O | -9% | 1.06 |
| Cc1cc(C(=O)N[C@@H](C)c2ccccn2)on1 | 1% | -0.08 |
| COc1cc2c(cc1CN1CCC[C@H](CS(C)(=O)=O)C1)OCCCO2 | -9% | 1.71 |
| Cc1cc(Nc2ccc3c(ccn3CCO)c2)n2ncnc2n1 | 1% | -0.25 |
| CO[C@@](C)(CS(=O)(=O)NCC(C)(C)CCCO)c1ccccc1 | -4% | 0.6 |
| CCCC1CCCCC1NC(=O)N(C)C(C)CS(=O)(=O)CC (stereo not drawn) | 0% | -0.02 |
| CCCNC(=O)N1CC[C@H](CC(=O)N(C)Cc2ccccc2)C1 | -1% | 0.16 |
| O=C(N[C@@H](Cc1ccccc1)C(=O)N1CCCCCC1)c1ccccc1 | 0% | -0.03 |
| COc1ccc(CCc2n[nH]c(NC(=O)c3nc(C)sc3C)n2)cc1 | 20% | -2.91 |
| Cc1ccsc1CN(Cc1ccc(F)cc1)C(=O)CN(C1CCCCC1)S(=O)(=O)c1ccc2ccccc2c1 | -7% | 1.4 |
| COCCCN1C(=O)CC[C@@H]2CN(C(=O)c3ccc(Cl)cc3O)CC[C@@H]21 | 11% | -1.4 |
| COc1ccc(CC(=O)N2CCc3nc(N4CCN(c5ccc(F)cc5)CC4)nc(N(C)C)c3C2)cc1 | -12% | 1.59 |
| COc1ccc(CN2CCc3ccccc3C2)cc1OC[C@@H](O)CN1CCCC1 | 10% | -1.44 |
| NC(=O)c1cccc(CCN[C@H]2CCC23CCCC3)c1 | -2% | 0.23 |
| CC[C@H](NC(=O)COCC(F)(F)C(F)F)c1cc(C)ccn1 | 2% | -0.42 |
| Cc1ccc(C)c(N2CCN(/C(=N/c3ccc(C(=O)O)cc3)NCc3ccccc3)CC2)c1 | -16% | 1.58 |
| CCO[C@H]1C[C@H](NC(=O)Nc2ccc(COC)c(C#N)c2)C1 | -12% | 2.27 |
| CC(C)CN(CC(C)C)S(=O)(=O)N1CCC(C(=O)NC2CCCCCC2)CC1 | -8% | 1.29 |
| Cc1cc(C(=O)NC2CCCCCC2)nn1C | -3% | 0.43 |

| SMILES | % Inhibition | Z score |
| --- | --- | --- |
| N#Cc1ccc(Br)cc1N1C[C@@H]2CC[C@H](O)[C@@H]2C1 | -5% | 0.99 |
| CC1=CCCC(C)C1CNCc1nccn1C(F)F (stereo not drawn) | 5% | -0.62 |
| COc1ccccc1C(=O)N[C@H]1CCCc2c1[nH]c1c(Cl)cccc21 | 9% | -1.1 |
| CC(C)CN1C(=O)CC[C@@H](C(=O)Nc2ccc(N3CCOCC3)cc2)[C@H]1C | -15% | 2 |
| Cc1ccc(C(=O)NC2c3ccccc3CCC2n2ccnc2)c(=O)[nH]1 (stereo not drawn) | 30% | -0.01 |
| CN1CCC(CNc2cc([C@H]3CCOC3)ncn2)(c2ccccc2)CC1 | -9% | 1.3 |
| CC(C)CN1C(=O)N(CCCc2cccnc2)C(=O)C12CCNCC2 | -12% | 1.6 |
| COc1ccc2c(c1)/C(=C1/SC(C(C)=O)=C(c3ccccc3)S1)C(=S)C(C)(C)N2 | -5% | 0.65 |
| CC(C)Cc1cc(-c2nccn2-c2ccc(C(N)=O)cc2)n[nH]1 | -10% | 1.85 |
| O=C1CCN(c2nc(-c3ccc(Cl)cc3)nc3c2CNC3)CCN1 | -14% | 1.92 |
| CC1CC(C)CN(C(C)(C)CNC(=O)CC2(O)CCCCC2)C1 (stereo not drawn) | -5% | 0.59 |
| Cc1ccccc1S(=O)(=O)N1CCC(n2cnc3ccc(Cl)cc3c2=O)CC1 | -10% | 1.12 |
| CCN(CC)CCN(C)C(=O)c1cnn(-c2nccc(-c3ccc(OC)c(F)c3)n2)c1C1CC1 | 5% | -0.54 |
| CC(=O)c1ccc(S(=O)(=O)N[C@H]2CCN(c3ccc(C)c(C)c3)C2=O)cc1 | 2% | -0.35 |
| CC(=O)N(C)C[C@H]1CCN(S(=O)(=O)c2ccccc2Cl)C[C@H]1N(C)C | -12% | 1.54 |
| CC(=O)Nc1ccc(S(=O)(=O)NCCCc2cc3ccccc3o2)cc1 | -2% | 0.3 |
| O=C(NC[C@H]1CC[C@@H](CO)O1)Nc1nc(CC(F)(F)F)cs1 | 1% | -0.08 |
| CCn1ccc([C@H](C)NC(=O)c2cc(-c3ccc(C)cc3)nc3c2c(C)nn3CC)n1 | 32% | -3.63 |
| O=C1CNC(=O)N1Cc1nc(-c2ccncc2)no1 | -3% | 0.58 |
| N#Cc1cc(F)c(N2CCC(NC(=O)CC3CCCC3)CC2)c(F)c1 | -6% | 0.85 |
| O=S(=O)(c1cccc2nsnc12)N1CC[C@H](c2ccc3c(c2)OCO3)C1 | 2% | -0.3 |

Reference: ChEMBL document CHEMBL4888484, “Replenishing the malaria drug discovery pipeline: Screening and hit evaluation of the MMV Hit Generation Library 1 (HGL1) against asexual blood stage Plasmodium falciparum ,using a nano luciferase reporter read-out” (2022)
